Whole data set: some 110,000 compounds, median “z-score” near -0.1, cut for the highest 2% near 2. This is one part of the list. Calls of active or inactive are those of the source.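 Rule for the calls: active = z-score in the third read window above 3 or below -3; inactive = the rest.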
What follows are compounds tested against Metabotropic glutamate receptor 8 (Rattus norvegicus) (UniProt P70579) (assay: mGluR8 Gi/Go-coupled signaling modulation – cell-based, rat, thallium flux, HTS, primary screen (AID 488969)). Conditions: HEK293 rat mGluR8, GIRK (G protein-gated inwardly rectifying potassium channel) thallium flux, FluoZin2; at 10 µM; stronger effect = higher value; submaximal glutamate (EC20) added with thallium.
Sequence of UniProt P70579 (P70579 whole entry, looked up): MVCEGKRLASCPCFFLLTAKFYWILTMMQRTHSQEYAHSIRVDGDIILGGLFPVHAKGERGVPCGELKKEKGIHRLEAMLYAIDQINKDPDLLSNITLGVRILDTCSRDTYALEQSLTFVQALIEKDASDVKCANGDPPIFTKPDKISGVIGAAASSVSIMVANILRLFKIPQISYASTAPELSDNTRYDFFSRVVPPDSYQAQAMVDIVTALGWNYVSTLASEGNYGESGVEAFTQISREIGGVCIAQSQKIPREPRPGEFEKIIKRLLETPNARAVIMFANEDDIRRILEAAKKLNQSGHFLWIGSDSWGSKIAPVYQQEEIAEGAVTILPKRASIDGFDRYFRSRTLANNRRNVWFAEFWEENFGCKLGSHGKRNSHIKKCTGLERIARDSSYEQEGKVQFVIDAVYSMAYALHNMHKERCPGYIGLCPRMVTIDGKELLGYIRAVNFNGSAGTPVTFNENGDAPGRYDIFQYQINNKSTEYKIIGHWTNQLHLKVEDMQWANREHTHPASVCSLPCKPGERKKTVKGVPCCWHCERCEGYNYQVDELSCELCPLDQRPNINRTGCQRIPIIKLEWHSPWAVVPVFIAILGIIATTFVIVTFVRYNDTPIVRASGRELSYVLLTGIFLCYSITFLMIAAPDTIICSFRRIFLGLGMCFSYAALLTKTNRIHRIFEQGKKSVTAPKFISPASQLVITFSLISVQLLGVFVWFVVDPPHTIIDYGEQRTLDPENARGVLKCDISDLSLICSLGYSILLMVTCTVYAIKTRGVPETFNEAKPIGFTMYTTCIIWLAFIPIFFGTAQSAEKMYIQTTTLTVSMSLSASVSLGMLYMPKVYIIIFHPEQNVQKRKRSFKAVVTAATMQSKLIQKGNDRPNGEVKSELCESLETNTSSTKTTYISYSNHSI

Row | Structure (SMILES) | z-score
1 | COc1cc2c(cc1NC(=O)C(C)N1CCN(S(=O)(=O)c3ccccc3[N+](=O)[O-])CC1)oc1ccccc12 (stereo not drawn) | -0.376
2 | O=C(CC1SC(=Nc2cccc3ccccc23)N(Cc2ccccn2)C1=O)Nc1ccccc1Br (stereo not drawn) | 0.215
3 | Cc1ccc2occ(/C=N/NC(N)=S)c(=O)c2c1 | -0.503
4 | NC(=O)c1cnn2c(C(F)(F)F)cc(-c3ccc(F)cc3)nc12 | 0.321
5 | O=C1CC(c2nc3ccccc3[nH]2)CN1c1ccccc1 (stereo not drawn) | -0.634
6 | CCOc1cccc(N2C(=O)CC(n3cnc4ccccc43)C2=O)c1 (stereo not drawn) | -0.143
7 | c1ccc(COc2ccc(OCCOCCn3cncn3)cc2)cc1 | 0.218
8 | Cc1ccc(-c2nnc(-n3nnc4ccccc43)c3ccccc23)cc1 | 0.00269
9 | O=C(CN1CCOCC1)N1CCN(c2nnc(-c3ccccc3)c3ccccc23)CC1 | -0.343
10 | CCCCN(C(=O)CNC(=O)c1cccs1)C(C(=O)NC1CCCCC1)c1cccnc1 (stereo not drawn) | 0.108
11 | O=C(CC1SC(=O)N(Cc2ccc(Cl)cc2)C1=O)Nc1nccs1 (stereo not drawn) | -0.132
12 | COc1cc(NC(=O)c2ccc(F)cc2)c(OC)cc1Cl | -0.836
13 | Nc1nonc1-c1nc2ccccc2n1CC(=O)O | -0.383
14 | CCCCOc1ccc(/C=C/C(=O)OCC(=O)NC(=O)NCC(C)C)cc1OCC | -0.0691
15 | CCCSc1nn2c(=O)c3ccccc3nc2s1 | -0.252
16 | O=C(OCc1nc2ccccc2[n+]([O-])c1C(=O)c1ccccc1)c1cccs1 | 0.108
17 | Cc1nn(-c2ccccc2)c(C)c1NC(=O)COc1ccc(F)cc1Cl | -0.254
18 | CCn1c(Cc2ccccc2)nnc1SCc1ccc([N+](=O)[O-])cc1 | -0.0624
19 | CCC(CC)C(=O)Nc1cc([N+](=O)[O-])ccc1Cl | -0.151
20 | CCN(CC)C(=O)CSc1nc2c(sc(=S)n2CC)c(=O)n1-c1ccccc1 | -0.101
21 | O=C(Nc1ncccn1)C1CCCN1S(=O)(=O)c1ccc(Cl)c(Cl)c1 (stereo not drawn) | 0.92
22 | COc1ccc(C2CC(c3ccc(Br)cc3)=NN2C(=O)CSC2=NCCS2)cc1 (stereo not drawn) | -0.0812

Row | Structure (SMILES) | z-score
23 | COc1ccc(OC)c(S(N)(=O)=O)c1 | -0.21
24 | Clc1ccc(Nc2nc(C3CC3)cs2)cc1 | -0.305
25 | Nc1nnnn1/N=C/c1cccc(Oc2ccccc2)c1 | -0.0762
26 | Cc1ccc(NC(=O)C(=O)NCc2ccc(/C=C(/C#N)C(=O)NCc3cccnc3)o2)cc1 | -0.269
27 | CCOc1nc(C)ccc1-c1noc(-c2ccccc2OC)n1 | -1.27
28 | Cc1ccc2c(c1)C1CN(C)CCC1N2C(=O)c1ccccc1NS(=O)(=O)c1ccc(F)cc1 (stereo not drawn) | -0.699
29 | O=C(NCc1cccs1)C1CCC(CNS(=O)(=O)c2cccs2)CC1 (stereo not drawn) | -0.00847
30 | COc1ccc(-n2c(C)nc3c(cnn3-c3ccc(Cl)cc3)c2=O)cc1 | -0.692
31 | COc1ccc(NC(=O)CCNC(=O)Cn2ccc3ccccc3c2=O)c(OC)c1 | -0.123
32 | O=C(CCCn1c(SCC(=O)NCC2CCCO2)nc2ccccc2c1=O)NCC1CCCO1 (stereo not drawn) | 0.0275
33 | CCOCC(=O)Nc1ccc(S(=O)(=O)NCCc2ccccc2)cc1 | -0.0788
34 | COc1cc([N+](=O)[O-])ccc1NC(=O)CCCOc1ccc(C)cc1 | -0.467
35 | O=C(/C=C/c1ccc(-c2ccccc2)o1)c1ccccc1 | -0.298
36 | Cc1c(Cl)c([N+](=O)[O-])nn1Cc1ccc(C(=O)N/N=C\c2cc(Cl)ccc2O)o1 | 0.0342
37 | Cc1ccccc1NC(=S)N(C)Cc1cccs1 | 0.0767
38 | O=C(Cn1ccc(C(F)(F)F)n1)N/N=C/c1cccs1 | 0.542
39 | COCCNC(=O)C(C#N)c1nc2ccccc2nc1N1CCCCCC1 (stereo not drawn) | -2.4
40 | CCNS(=O)(=O)c1ccc(C)c(-n2cnnn2)c1C | 0.244
41 | O=C(Nc1cc(C(F)(F)F)ccc1N1CCCCC1)c1cccc([N+](=O)[O-])c1 | -0.0811
42 | COc1ccc(C2CC(=O)Nc3cc(C)c(C)cc32)c(OC)c1OC (stereo not drawn) | -0.209
43 | COc1ccc(S(=O)(=O)NCC(c2cccnc2)N2CCN(C)CC2)cc1C (stereo not drawn) | -0.387
44 | COCCNC(=O)CN1CCN(C(c2ccccc2)c2ccccc2)CC1 | 0.25

Row | Structure (SMILES) | z-score
45 | CCOC(=O)c1ccc(NC(=O)CSc2nnnn2C2CCCCC2)cc1 | -0.166
46 | O=C(CC12CC3CC(CC(C3)C1)C2)N1CCCC1 | -0.327
47 | c1ccc(OCCCn2nnc(-c3ccc(N4CCOCC4)cc3)n2)cc1 | -0.423
48 | CC(=O)OCC1OC(Nc2cccc(C)c2)C(OC(C)=O)C(OC(C)=O)C1OC(C)=O (stereo not drawn) | -0.349
49 | Cn1nc(-c2ccc(C(=O)N3CCN(CCO)CC3)cc2)c2ccccc2c1=O | -0.0208
50 | Cc1ccccc1N=C1c2cc([N+](=O)[O-])ccc2-c2ncccc21 | -0.0207
51 | CC1(C)CC2CC(C)(CN2C(=O)C23CCC(C)(C(=O)O2)C3(C)C)C1 (stereo not drawn) | 0.0773
52 | CC(OC(=O)CCCOc1ccccc1)C(=O)NC(N)=O (stereo not drawn) | 0.0976
53 | O=C(c1ccccc1)c1ccc(OCC(O)CN2CCOCC2)cc1 (stereo not drawn) | -0.0655
54 | CCN(CC)CCN1C(=O)C(=O)/C(=C(/O)c2c(C)[nH]c(C(=O)OC)c2C)C1c1ccco1 (stereo not drawn) | -0.0729
55 | Cc1cc(C(F)(F)F)c(C#N)c(SCC(=O)NC2CC2)n1 | 0.155
56 | CS(=O)(=O)N(CC(=O)N1CCN(c2ccccc2)CC1)C1CCCCC1 | 0.084
57 | Cc1ccc2c(c1)N(C(C)C(=O)NCCc1ccccc1)C(=O)CO2 (stereo not drawn) | 0.21
58 | O=C(NCc1ccc2c(c1)OCO2)C(=O)NC1CCCCC1 | -0.077
59 | CCCCN=Cc1sc2ccc(OCC)cc2c1O | -0.188
60 | CCc1ccc(Oc2coc3cc(OC(=O)c4cc5ccccc5oc4=O)ccc3c2=O)cc1 | -0.44
61 | CC1=C(C#N)C(Nc2ccc(C)cn2)(C(F)(F)F)C(=O)N1 (stereo not drawn) | -0.145
62 | Nc1ncn(C23CC4CC(CC(C4)C2)C3)n1 | -0.106
63 | COc1ccc(NC(=O)CC2C(=O)N(C)C(=S)N2Cc2cccs2)cc1 (stereo not drawn) | 0.108
64 | Cc1ccc2oc(=O)c3cnn(CC(=O)N4CCc5ccccc5C4)c3c2c1 | active: -3.05
65 | CCOc1ccccc1C(=O)N(Cc1ccccc1)Cc1cc2cc3c(cc2[nH]c1=O)OCCO3 | 0.283
66 | COc1cc(/C=C(/C#N)c2ccccc2F)ccc1OCc1ccccc1 | 0.205

Row | Structure (SMILES) | z-score
67 | COC(=O)c1ccccc1NC(=O)CN(c1ccc(OC)cc1)S(C)(=O)=O | -0.0266
68 | COc1ccc(C2C=C(Nc3ccccc3)C(=O)N2c2ccccc2)cc1OC (stereo not drawn) | -0.22
69 | O=C(Nc1nc2ccc(S(=O)(=O)N3CCCCC3)cc2s1)C1CCCO1 (stereo not drawn) | -0.0835
70 | CC(O)c1n(C)c(Cl)c[n+]1C (stereo not drawn) | -0.00128
71 | O=C(CSc1n[nH]c(-c2ccncc2)n1)NCCc1ccccc1 | -0.989
72 | COc1ccc(CC(=O)Oc2cc(C)[nH]c(=O)c2[N+](=O)[O-])cc1 | 0.172
73 | CN=C1SC(CC(=O)Nc2ccc(N3CCOCC3)cc2)C(=O)N1C (stereo not drawn) | 0.0196
74 | Cc1ccc(-c2nn3c(C)nnc3s2)cc1NC(=O)CSc1ccc(Cl)cc1 | -1.61
75 | CC(C)CC(NS(=O)(=O)c1ccc2c(c1)oc(=O)n2C)C(=O)N1CC=C(c2ccccc2)CC1 (stereo not drawn) | -0.272
76 | Cn1c(=O)cc(OCCCC(=O)NCc2ccco2)c2ccccc21 | -0.291
77 | COc1cccc(CNC(=O)CCCNS(=O)(=O)c2cccs2)c1 | 0.635
78 | CCn1c(SCC(=O)Nc2ccccc2C(=O)OC)nnc1-c1cccc(C)c1 | -2.11
79 | COc1ccc2cc(CN(CCc3ccccc3)Cc3nnnn3CC3CCCO3)c(=O)[nH]c2c1 (stereo not drawn) | 0.287
80 | Cc1onc(-c2c(Cl)cccc2Cl)c1C(=O)N1CCc2ccccc2C1 | 0.0144
81 | CN(Cc1ccccc1)C(=O)c1ccccc1NC(=O)c1ccco1 | -0.926
82 | CCOC(=O)Cc1csc(NC(=O)CSc2nnc(-c3cccnc3)n2Cc2ccco2)n1 | -0.85
83 | COC(=O)c1ccc(CSc2nnc(C)n2N)o1 | -0.0453
84 | O=C(Cn1cnc2ccccc21)NCc1ccccc1 | 0.289
85 | COC(=O)c1ccccc1NC(=O)Cn1c(=O)oc2ccc(Cl)cc21 | -0.469
86 | Cc1csc(NC(=O)CSc2nc3ccccc3c3c2CCCC3)n1 | -0.385
87 | COc1cc(C)ccc1OCCOc1c(C)cccc1Cl | 0.489
88 | CC(C)CC(NC(=O)c1ccc(Cl)cc1)C(=O)OCC(=O)c1ccc2c(c1)NC(=O)CO2 (stereo not drawn) | 0.362

Row | Structure (SMILES) | z-score
89 | CCn1ncc(NC(=O)Nc2cccc(C(F)(F)F)c2)c1C(N)=O | 0.142
90 | Cc1ccc2c(c1)/C(=N/OC(=O)c1ccc(F)cc1)CCS2 | 0.238
91 | O=C(Cn1nnc(-c2ccccc2)n1)N/N=C/c1cccc([N+](=O)[O-])c1 | -0.0724
92 | CCC(CC)C(=O)Nc1cccc(C(=O)Nc2ccc(OC)cc2[N+](=O)[O-])c1 | -0.105
93 | COc1ccc(Nc2nc(N)nc(CSc3nccc(C)n3)n2)cc1 | 0.0732
94 | Cn1cccc1C(=O)NC(=O)CSc1nc2ccccc2s1 | -0.728
95 | CCOc1cc(C2CC(=O)c3c(ccc4ccccc34)N2)ccc1O (stereo not drawn) | -0.494
96 | CCCCNc1ccc2nsnc2c1[N+](=O)[O-] | -0.137
97 | COc1ccc(C(=O)c2ccccc2)cc1Br | -0.139
98 | CCn1cc(/C=C2\SC(=O)N(CC(=O)Nc3ccc4c(c3)OCO4)C2=O)c2ccccc21 | -0.0436
99 | O=C(C1CCCN(S(=O)(=O)c2cccc3nonc23)C1)N1CCN(c2ccccc2)CC1 (stereo not drawn) | 0.485
100 | O=C(CCSc1nc(-c2ccc3c(c2)OCO3)cc(C(F)(F)F)n1)NCc1ccccc1 | -0.215
101 | COc1ccc(-n2c(C)cc(C(=O)COC(=O)c3cc(NC(=O)c4cccs4)c(OC)c(OC)c3)c2C)cc1 | 0.389
102 | O=c1c2cccc3c2c(nn1CN1CCOCC1)-c1ccccc1-3 | -1.08
103 | COc1cccc2c(=O)n(CC(=O)N3CCCc4ccccc43)ccc12 | -0.129
104 | O=C1NCCc2cc3c(cc21)OCO3 | -0.197
105 | Cc1ccc(-c2csc3nc(C)n(N)c(=O)c23)o1 | 0.0499
106 | CCn1cnc2c1c(=O)n(CC(=O)Nc1ccc3c(c1)OC(F)(F)O3)c(=O)n2Cc1ccccc1 | 0.285
107 | CN1CCN(Cc2oc(CO)cc(=O)c2O)CC1 | -0.42
108 | Cc1ccc(-n2nnnc2SCC(=O)NCCC2=CCCCC2)c(C)c1 | 0.08

Source: PubChem BioAssay AID488969 (Vanderbilt High Throughput Screening Facility, 2010)
